B1: AGACAAA (DNA:RNA)
RNA: GGGAGACCGGAAUUCAGAUUGUCCAGACAAAUUAAAUCCCGUCGUAGCCACCA
DNA 1: CAATCTGAATTCCGGTCTCCC
DNA 2: TGGTGGCTACGACGGGATT
B2: AUGGUUC (DNA:RNA)
RNA: B1 RNA with G26U, A27G, C28G, A29U, A30U, A31C
DNA 1: CAATCTGAATTCCGGTCTCCC
DNA 2: TGGTGGCTACGACGGGATT
B3: UCCAUCG (DNA:RNA)
RNA: GGGAGACCGGAAUUCAGAUUGUCCUCCAUCGUUAAAUCCCGUCGUAGCCACCA
DNA 1: CAATCTGAATTCCGGTCTCCC
DNA 2: TGGTGGCTACGACGGGATT
B4: AGUUCCG (DNA:RNA)
RNA: B1 RNA with A27U, C28U, A29C, A30C, A31G
DNA 1: CAATCTGAATTCCGGTCTCCC
DNA 2: TGGTGGCTACGACGGGATT
B5: UCAUAUC (DNA:RNA)
RNA: B1 RNA with A25U, G26C, C28U, A30U, A31C
DNA 1: CAATCTGAATTCCGGTCTCCC
DNA 2: TGGTGGCTACGACGGGATT
B6: GUGGAUA (DNA:RNA)
RNA: B1 RNA with A25G, G26U, A27G, C28G, A30U
DNA 1: CAATCTGAATTCCGGTCTCCC
DNA 2: TGGTGGCTACGACGGGATT
B7: GUGUAUA (DNA:RNA)
RNA: B1 RNA with A25G, G26U, A27G, C28U, A30U
DNA 1: CAATCTGAATTCCGGTCTCCC
DNA 2: TGGTGGCTACGACGGGATT
B8: CUGAGUC (DNA:RNA)
RNA: B3 RNA with U25C, C26U, C27G, U29G, C30U, G31C
DNA 1: CAATCTGAATTCCGGTCTCCC
DNA 2: TGGTGGCTACGACGGGATT
B9: CCCAGUG (DNA:RNA)
RNA: B3 RNA with U25C, U29G, C30U
DNA 1: CAATCTGAATTCCGGTCTCCC
DNA 2: TGGTGGCTACGACGGGATT
B10: GUCAUAU (DNA:RNA)
RNA: B3 RNA with U25G, C26U, C30A, G31U
DNA 1: CAATCTGAATTCCGGTCTCCC
DNA 2: TGGTGGCTACGACGGGATT
B11: AAAAAUA (DNA:RNA)
RNA: B1 RNA with G26A, C28A, A30U
DNA 1: CAATCTGAATTCCGGTCTCCC
DNA 2: TGGTGGCTACGACGGGATT
B12: CGAAGAG (DNA:RNA)
RNA: B1 RNA with A25C, C28A, A29G, A31G
DNA 1: CAATCTGAATTCCGGTCTCCC
DNA 2: TGGTGGCTACGACGGGATT
B13: UUUAGUC (DNA:RNA)
RNA: B3 RNA with C26U, C27U, U29G, C30U, G31C
DNA 1: CAATCTGAATTCCGGTCTCCC
DNA 2: TGGTGGCTACGACGGGATT
B14: AAGCGAC (DNA:RNA)
RNA: B1 RNA with G26A, A27G, A29G, A31C
DNA 1: CAATCTGAATTCCGGTCTCCC
DNA 2: TGGTGGCTACGACGGGATT
B15: CGCCGAC (DNA:RNA)
RNA: B1 RNA with A25C, A27C, A29G, A31C
DNA 1: CAATCTGAATTCCGGTCTCCC
DNA 2: TGGTGGCTACGACGGGATT
B16: GCAAAAC (DNA:RNA)
RNA: B1 RNA with A25G, G26C, C28A, A31C
DNA 1: CAATCTGAATTCCGGTCTCCC
DNA 2: TGGTGGCTACGACGGGATT
B17: GAUACCU (DNA:RNA)
RNA: B3 RNA with U25G, C26A, C27U, U29C, G31U
DNA 1: CAATCTGAATTCCGGTCTCCC
DNA 2: TGGTGGCTACGACGGGATT
B18: GCGGCCC (DNA:RNA)
RNA: B3 RNA with U25G, C27G, A28G, U29C, G31C
DNA 1: CAATCTGAATTCCGGTCTCCC
DNA 2: TGGTGGCTACGACGGGATT
B19: AUACGGU (DNA:RNA)
RNA: B1 RNA with G26U, A29G, A30G, A31U
DNA 1: CAATCTGAATTCCGGTCTCCC
DNA 2: TGGTGGCTACGACGGGATT
B20: CCUAAAA (DNA:RNA)
RNA: B1 RNA with A25C, G26C, A27U, C28A
DNA 1: CAATCTGAATTCCGGTCTCCC
DNA 2: TGGTGGCTACGACGGGATT

Changes are numbered by the printed parent chain; changes in the protein carry UniProt numbers. The list shows a part of the results.

For this test, the target named is T1, RBFOX1 RRM (Homo sapiens, UniProt Q9NWB1 109-208).
T1 sequence: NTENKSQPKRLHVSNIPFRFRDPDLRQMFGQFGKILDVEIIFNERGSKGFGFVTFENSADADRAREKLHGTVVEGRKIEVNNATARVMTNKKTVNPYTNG
The test can be described thus: EMSA; HiTS-Eq, 1 nM pool, 10 min; buffer printed only for the single-RNA assays: 10 mM Tris pH 7.5, 150 mM NaCl, 3.4 mM EDTA, 0.001% NP-40, 30 C. The note with it: tags: His6 N-terminal (pET28a); label: 5' 32P. The gist of the method: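 Purified wild-type or mutant RbFox RRM at increasing concentrations was equilibrated with 1 nM of 5′-radiolabelled RNA carrying 7 randomized nucleotides for 10 min in 50 µL. Unbound RNA was separated by 8% native PAGE and sequenced. Relative association constants came from read-count changes of each RNA species compared with the control reaction, normalised to the cognate motif.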
For orientation: In EMSA bound probe runs differently from free probe, usually more slowly.
In the case of B1, the binding signal is 0.000651 KA relative to UGCAUGU. As for B2, the figure is 0.015 KA relative to UGCAUGU; as for B3, 0.00468 KA relative to UGCAUGU. Turning to B4, the binding signal is 0.00968 KA relative to UGCAUGU. In the case of B5, the binding signal was 0.00151 KA relative to UGCAUGU. As for B6, the figure is 0.0166 KA relative to UGCAUGU; as for B7, 0.00691 KA relative to UGCAUGU; as for B8, 0.0162 KA relative to UGCAUGU. For B9 the value was 0.0079 KA relative to UGCAUGU. B10: the binding signal was 0.00217 KA relative to UGCAUGU. As for B11, the binding signal is 0.000283 KA relative to UGCAUGU. Take B12: the binding signal was 0.0149 KA relative to UGCAUGU. For B13 the value was 0.0158 KA relative to UGCAUGU. Consider B14, for which the binding signal is 0.00386 KA relative to UGCAUGU. Regarding B15, the binding signal was 0.0109 KA relative to UGCAUGU.

As to B16, the binding signal is 0.00147 KA relative to UGCAUGU. As for B17, the figure is 0.00312 KA relative to UGCAUGU; as for B18, 0.0172 KA relative to UGCAUGU. For B19 the value was 0.00622 KA relative to UGCAUGU. For B20 the value was 0.000973 KA relative to UGCAUGU.

The record behind these values is PMC9911399, “Two distinct binding modes provide the RNA-binding protein RbFox with extraordinary sequence specificity”.
